Data reported in PubChem BioAssay AID2069 (Sanford-Burnham Center for Chemical Genomics, 2009).
In all, about 1,200 compounds went through this assay and about 210 (18%) were called active. No stated cut-off is given here; in the data, active means inhibition above about 30%; inactive means the rest. This is a selection; strong and weak results do not stand in their true shares.

Assay: fluorescence readout artefact check – biochemical, HTRF, uHTS, artefact control for SUMOylation inhibitor project, confirmation (AID 2069)
Conditions: HTRF interference counterscreen, at 35 µM, stronger effect = higher value

| SMILES | inhibition |
| --- | --- |
| Cc1ccc(C)c(NC(=S)Nc2cccc3cnccc23)c1 | inactive: 4.35% |
| CCCCN(C)S(=O)(=O)c1cc(Br)cc2c1N(C(=O)C1CC1)CC2 | inactive: -7.7% |
| COc1cc(/C=C2\C(=O)N(CCC#N)N=C2C)ccc1OCC(=O)Nc1ccccc1 | inactive: -9.5% |
| O=C(Nc1ccccc1)Nc1ccno1 | active: 47.1% |
| S=C(Nc1ccc2nsnc2c1)N1CCCC1 | active: 35.6% |
| CSc1nnc(-c2ccco2)c(-c2ccco2)n1 | inactive: 27.1% |
| COC(=O)c1nc2n(n1)C(c1ccc([N+](=O)[O-])cc1)C(C(=O)Nc1ccc(Cl)cc1)=C(C)N2 (stereo not given) | inactive: 1.4% |
| Cc1ccc(C)c(S(=O)(=O)C(C#N)c2nc3ccccc3nc2N2CCOCC2)c1 (stereo not given) | inactive: 9.05% |
| Fc1cccc(NC(=S)Nc2cccc3ccccc23)c1 | inactive: -11.6% |
| Cc1ccc(C)c(S(=O)(=O)c2c(N)n(/N=C/c3ccco3)c3nc4ccccc4nc23)c1 | inactive: -11.7% |
| CCC(NC(=O)Cc1c(C)c2c(cc(C)c3c(C)c(C)oc32)oc1=O)C(=O)O (stereo not given) | active: 51.6% |
| Cc1ccc(Cn2nnnc2CN2CCC(NC(=O)C(C)(C)C)CC2)cc1 | inactive: 5.15% |
| Cc1cc(-c2csc(NC(=O)c3ccc(=O)[nH]c3)n2)c(C)n1Cc1ccccc1 | inactive: -12.3% |
| NC(=O)c1ccc(N=C2C(=O)Nc3ccc([N+](=O)[O-])cc32)cc1 | inactive: -4.65% |
| CC(C)(C)c1cc(=O)n(-c2ccccc2)[nH]1 | inactive: -0.65% |
| Cc1ccc(NC(=O)C2CCN(C(=O)c3ccco3)CC2)cc1 | inactive: 4.45% |
| Brc1ccc(OCCN2CCOCC2)cc1 | inactive: -8.15% |
| CCOC(=O)NC(=O)COC(=O)c1ccc(O)cc1 | inactive: -2.1% |

| SMILES | inhibition |
| --- | --- |
| O=C(Cc1cccs1)N/N=C/C=C\c1ccco1 | inactive: -3.3% |
| Cc1cccc(-c2n[nH]c(=S)n2/N=C/C=C/c2ccco2)c1 | inactive: 22.3% |
| COc1cc2c(cc1OC)C(C)=NC1(CCCCC1)C2 | active: 31.6% |
| O=C(NCc1ccccc1)Nc1cccn(Cc2c(F)cccc2Cl)c1=O | inactive: 3.05% |
| O=C(Nc1cccc2ccccc12)N1CCc2ccccc2C1 | inactive: -0.3% |
| Cc1ccc(/C=C(\C#N)C(=O)Nc2cccc3ncccc23)o1 | inactive: 2.8% |
| Cc1ccc(C)c(-c2nc3ccc(N)cc3[nH]2)c1 | active: 57% |
| Cc1cc(/C=N/Nc2ccc([N+](=O)[O-])cn2)c(C)n1-c1ccc(C(=O)O)cc1 | inactive: -10.8% |
| O=C(O)CC(C(=O)O)N1C(=O)/C(=C/C=C/c2ccco2)SC1=S (stereo not given) | inactive: 5.6% |
| Cc1ccc2[nH]c3c(c2c1)CN(C(=O)CN1CCCc2ccccc21)CC3 | inactive: 6% |
| Cc1cc(NC(=O)Cn2c(=O)n(Cc3ccccc3)c(=O)c3ccccc32)no1 | inactive: -6.1% |
| COc1cc(/C=C2\SC(=O)N(CC(=O)Nc3ccccc3F)C2=O)cc(Cl)c1O | inactive: 2% |
| N#CC(C(=O)NC1CC1)c1nc2ccccc2nc1N1CCCC1 (stereo not given) | inactive: -0.3% |
| CC(C)c1onc(C(=O)N2CCC(C(N)=O)CC2)c1[N+](=O)[O-] | inactive: 6.25% |
| O=C(NC1(O)C(=O)c2ccccc2C1=O)c1ccccc1 | active: 57.5% |
| O=c1nc2s/c(=C\c3ccco3)c(=O)n2nc1Cc1ccccc1 | inactive: 13.8% |
| O=C(Nc1cccc(N=Cc2cc(Br)cc(Br)c2O)c1)c1ccco1 | inactive: 17.1% |
